The text below walks through data of patent publication US11028174 (LEPU BIOPHARMA, dated 2021).

In one assay the target is mouse PD-L1 protein (mouse, UniProt Q9EP73 fragment, limits assumed). Briefly: ELISA, coated mouse PD-L1.
A further assay addresses rat PD-L1 protein (rat, UniProt D4AE25 19-239). Briefly: ELISA, coated rat PD-L1. The source says:
After washing, the plates were developed with TMB substrate and analyzed by spectrophotometer at OD 450 nm.
In general terms: ELISA stands for enzyme-linked immunosorbent assay.

Another assay concerns the target recombinant human TGF-β (human, UniProt P01137 fragment, The mature TGF-β1 is a disulfide-linked homodimer; one protomer is given.). Briefly: cell-based or functional assay.
Assay [1] deals with T1, human TGF-β1 protein (human, UniProt P01137 fragment). In words: cell-based or functional assay.
For assay [2], the target named is T1, human TGF-β1 protein. Briefly: cell-based or functional assay. This is another data set of the same source.
T1 sequence (P01137 279-390 limits assumed): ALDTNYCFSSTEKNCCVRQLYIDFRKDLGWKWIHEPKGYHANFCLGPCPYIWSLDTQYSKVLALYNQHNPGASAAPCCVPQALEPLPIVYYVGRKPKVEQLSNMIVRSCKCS

Sequence of mouse PD-L1 protein (Q9EP73 19-239 limits assumed): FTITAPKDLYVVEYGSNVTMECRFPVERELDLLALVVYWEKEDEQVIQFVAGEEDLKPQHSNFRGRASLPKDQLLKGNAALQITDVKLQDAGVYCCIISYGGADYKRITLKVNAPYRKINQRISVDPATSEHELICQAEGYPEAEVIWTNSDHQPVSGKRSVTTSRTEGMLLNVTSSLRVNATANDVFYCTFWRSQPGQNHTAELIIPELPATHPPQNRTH
Sequence of recombinant human TGF-β (P01137 279-390 limits assumed): as the sequence (P01137 279-390 limits assumed) above
Sequence of rat PD-L1 protein (D4AE25 entry or part of it limits assumed): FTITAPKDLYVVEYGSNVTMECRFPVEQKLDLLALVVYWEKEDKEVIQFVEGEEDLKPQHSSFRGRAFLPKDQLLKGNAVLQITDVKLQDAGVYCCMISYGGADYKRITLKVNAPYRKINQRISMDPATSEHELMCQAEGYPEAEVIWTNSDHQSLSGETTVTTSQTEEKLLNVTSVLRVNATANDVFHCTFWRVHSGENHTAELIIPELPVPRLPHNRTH

B1: LP008-06a-ES (other)
heavy: EVQLVESGGGLVKPGGSLRLSCAASGFTFSNYWMTWIRQAPGKGLEWVASITNTGSSTFYPESVKGRFTISRDNAKNSLYLQMNSLRAEDTAVYYCTRDTTIAPFDYWGQGTMVTVSSASTKGPSVFPLAPSSKSTSGGTAALGCLVKDYFPEPVTVSWNSGALTSGVHTFPAVLQSSGLYSLSSVVTVPSSSLGTQTYICNVNHKPSNTKVDKRV[human IgG1 Fc omitted]GGGGSGGGGSGGGGSGGGGSGIPPHVQKSVNNDMIVTDNNGAVKFPQLCKFCDVRFSTCDNQKSCMSNCSITSICEKPQEVCVAVWRKNDENITLETVCHDPKLPYHDFILEDAASPKCIMKEKKKPGETFFMCSCSSDECNDNIIFSEEYNTSNPD
light: DIQMTQSPSSLSASVGDRVTITCKASQNLNEYLNWYQQKPGKAPKRLIYKTNTLQAGIPSRFSGSGSGTDYTLTISSLQPEDFATYYCSQYQSGNTFGQGTKLEIKRTVAAPSVFIFPPSDEQLKSGTASVVCLLNNFYPREAKVQWKVDNALQSGNSQESVTEQDSKDSTYSLSSTLTLSKADYEKHKVYACEVTHQGLSSPVTKSFNRGEC
notes: also called CZ010-06a-ES
As to B1, the binding result with mouse PD-L1 protein and in the assay with rat PD-L1 protein was “no binding (tested: starting from 1 µg/ml)” each time. The “TGF-β SMAD luciferase reporter assay in transfected 293 cells” value (shortened to “TGF-β SMAD luciferase reporter assay”) with recombinant human TGF-β was 0.0717 nM.

B2: LP008-02 (other)
heavy: EVQLVQSGAEVKKPGASVKVSCKASGYTFTDFWVSWVRQAPGQGLEWMGEIYPNSGVSRYNEKFKGRVTMTVDKSISTAYMELSRLRSDDTAVYYCTKYFGYTYWFGYWGQGTLVTVSSASTKGPSVFPLAPSSKSTSGGTAALGCLVKDYFPEPVTVSWNSGALTSGVHTFPAVLQSSGLYSLSSVVTVPSSSLGTQTYICNVNHKPSNTKVDKRV[human IgG1 Fc omitted]GGGGSGGGGSGGGGSGGGGSGIPPHVQKSVNNDMIVTDNNGAVKFPQLCKFCDVRFSTCDNQKSCMSNCSITSICEKPQEVCVAVWRKNDENITLETVCHDPKLPYHDFILEDAASPKCIMKEKKKPGETFFMCSCSSDECNDNIIFSEEYNTSNPD
light: DIQMTQSPSSLSASVGDRVTITCRASKSVSTYMHWYQQKPGKQPKLLIYSASHLESGVPSRFSGSGSGTDFTLTISSLQPEDFATYYCQQSNELPVTFGGGTKVEIKRTVAAPSVFIFPPSDEQLKSGTASVVCLLNNFYPREAKVQWKVDNALQSGNSQESVTEQDSKDSTYSLSSTLTLSKADYEKHKVYACEVTHQGLSSPVTKSFNRGEC
notes: Bifunctional anti-PD-L1 antibody (67F3G7 VH V2 / VL V4) whose heavy chain is fused through a (Gly4Ser)4Gly linker to the TGF-β RII extracellular domain; also called CZ010-02
In the case of B2, the binding result with mouse PD-L1 protein and in the assay with rat PD-L1 protein was “no binding (tested: starting from 1 µg/ml)” in each case. Also, in the assay with recombinant human TGF-β, the “TGF-β SMAD luciferase reporter assay” value was 0.0735 nM.

B3: LP008-02-5 (other)
heavy: EVQLVQSGAEVKKPGASVKVSCKASGYTFTDFWVSWVRQAPGQGLEWMGEIYPNSGVSRYNEKFKGRVTMTVDKSISTAYMELSRLRSDDTAVYYCTKYFGYTYWFGYWGQGTLVTVSSASTKGPSVFPLAPSSKSTSGGTAALGCLVKDYFPEPVTVSWNSGALTSGVHTFPAVLQSSGLYSLSSVVTVPSSSLGTQTYICNVNHKPSNTKVDKRV[human IgG1 Fc omitted]SGGGGSGGGGSGGGGSGGGGSGGGGSHYPQLCKFCDVRFSTCDNQKSCMSNCSITSICEKPQEVCVAVWRKNDENITLETVCHDPKLPYHDFILEDAASPKCIMKEKKKPGETFFMCSCSSDECNDNIIFS
light: B2 light
On to B3, for which the “IC50, SMAD luciferase reporter in transfected 293 cells with recombinant human TGF-β1; upper panel” value (“IC50, SMAD luciferase reporter … upper panel” below) in the assay with human TGF-β1 protein [1] was 0.336 nM.

B4: LP008-02-4 (other)
heavy: EVQLVQSGAEVKKPGASVKVSCKASGYTFTDFWVSWVRQAPGQGLEWMGEIYPNSGVSRYNEKFKGRVTMTVDKSISTAYMELSRLRSDDTAVYYCTKYFGYTYWFGYWGQGTLVTVSSASTKGPSVFPLAPSSKSTSGGTAALGCLVKDYFPEPVTVSWNSGALTSGVHTFPAVLQSSGLYSLSSVVTVPSSSLGTQTYICNVNHKPSNTKVDKRV[human IgG1 Fc omitted]GGGGSGGGGSGGGGSGGGGSGGGGSTAGHTQTSTGGGAITTGTSGAGHGPQLCKFCDVRFSTCDNQKSCMSNCSITSICEKPQEVCVAVWRKNDENITLETVCHDPKLPYHDFILEDAASPKCIMKEKKKPGETFFMCSCSSDECNDNIIFS
light: B2 light
Regarding B4, the “IC50, SMAD luciferase reporter … upper panel” value in the assay with human TGF-β1 protein [1] is 0.188 nM. The “TGF-β SMAD luciferase reporter assay” value with human TGF-β1 protein [2] was found to be 0.173 nM.

B5: LP008-02-6 (other)
heavy: EVQLVQSGAEVKKPGASVKVSCKASGYTFTDFWVSWVRQAPGQGLEWMGEIYPNSGVSRYNEKFKGRVTMTVDKSISTAYMELSRLRSDDTAVYYCTKYFGYTYWFGYWGQGTLVTVSSASTKGPSVFPLAPSSKSTSGGTAALGCLVKDYFPEPVTVSWNSGALTSGVHTFPAVLQSSGLYSLSSVVTVPSSSLGTQTYICNVNHKPSNTKVDKRV[human IgG1 Fc omitted]SGGGGSGGGGSGGGGSGGGGSGGGGSHYPQLCKFCDVRFSTCDNQKSCMSNCSITSICEKPQEVCVAVWRKNDENITLETVCHDPKLPYHDFILEDAASPKCIMKEKKKPGETFFMCSCSSDECNDNIIFSEEYNTSNPD
light: B2 light
B5: the “IC50, SMAD luciferase reporter in transfected 293 cells with recombinant human TGF-β1; lower panel” value (“IC50, SMAD luciferase reporter … lower panel” below) with human TGF-β1 protein [1] amounted to 0.223 nM.

B6: LP008-02-7 (other)
heavy: EVQLVQSGAEVKKPGASVKVSCKASGYTFTDFWVSWVRQAPGQGLEWMGEIYPNSGVSRYNEKFKGRVTMTVDKSISTAYMELSRLRSDDTAVYYCTKYFGYTYWFGYWGQGTLVTVSSASTKGPSVFPLAPSSKSTSGGTAALGCLVKDYFPEPVTVSWNSGALTSGVHTFPAVLQSSGLYSLSSVVTVPSSSLGTQTYICNVNHKPSNTKVDKRV[human IgG1 Fc omitted]GGGGSGGGGSGGGGSHYPQLCKFCDVRFSTCDNQKSCMSNCSITSICEKPQEVCVAVWRKNDENITLETVCHDPKLPYHDFILEDAASPKCIMKEKKKPGETFFMCSCSSDECNDNIIFSEEYNTSNPD
light: B2 light
On to B6, for which the “IC50, SMAD luciferase reporter … lower panel” value with human TGF-β1 protein [1] is 0.408 nM.

B7: LP008-02-3 (other)
heavy: EVQLVQSGAEVKKPGASVKVSCKASGYTFTDFWVSWVRQAPGQGLEWMGEIYPNSGVSRYNEKFKGRVTMTVDKSISTAYMELSRLRSDDTAVYYCTKYFGYTYWFGYWGQGTLVTVSSASTKGPSVFPLAPSSKSTSGGTAALGCLVKDYFPEPVTVSWNSGALTSGVHTFPAVLQSSGLYSLSSVVTVPSSSLGTQTYICNVNHKPSNTKVDKRV[human IgG1 Fc omitted]GGGGSGGGGSGGGGSGGGGSGGGGSTAGHTQTSTGGGAITTGTSGAGHGPQLCKFCDVRFSTCDNQKSCMSNCSITSICEKPQEVCVAVWRKNDENITLETVCHDPKLPYHDFILEDAASPKCIMKEKKKPGETFFMCSCSSDECNDNIIFSEEYNTSNPD
light: B2 light
B7: in the assay with human TGF-β1 protein [2], the “TGF-β SMAD luciferase reporter assay” value turned out to be 0.164 nM.

B8: LP008-02-2 (other)
heavy: EVQLVQSGAEVKKPGASVKVSCKASGYTFTDFWVSWVRQAPGQGLEWMGEIYPNSGVSRYNEKFKGRVTMTVDKSISTAYMELSRLRSDDTAVYYCTKYFGYTYWFGYWGQGTLVTVSSASTKGPSVFPLAPSSKSTSGGTAALGCLVKDYFPEPVTVSWNSGALTSGVHTFPAVLQSSGLYSLSSVVTVPSSSLGTQTYICNVNHKPSNTKVDKRV[human IgG1 Fc omitted]GGGGSTAGHTQTSTGGGAITTGTSGAGHGPQLCKFCDVRFSTCDNQKSCMSNCSITSICEKPQEVCVAVWRKNDENITLETVCHDPKLPYHDFILEDAASPKCIMKEKKKPGETFFMCSCSSDECNDNIIFSEEYNTSNPD
light: B2 light
For the molecule B8, the “TGF-β SMAD luciferase reporter assay” value in the assay with human TGF-β1 protein [2] is 0.143 nM.

B9: LP008-02-1 (other)
heavy: B2 heavy
light: B2 light
In the case of B9, in the assay with human TGF-β1 protein [1], the “IC50, SMAD luciferase reporter … lower panel” value is 0.143 nM and the “IC50, SMAD luciferase reporter … upper panel” value was 0.13 nM.
